Test results: publication PMC4402527
Results are given in words; binding and its absence hold for the method and conditions named. Binding seen in cells or lysates may run through a third protein. Some results given as binding are weak or reduced against the parent protein; the word gives no strength. Tags and fused reporters may be left off the sequences shown.

The chains behind the UniProt entries cited, without tags or fusion partners.
UniProt P60842: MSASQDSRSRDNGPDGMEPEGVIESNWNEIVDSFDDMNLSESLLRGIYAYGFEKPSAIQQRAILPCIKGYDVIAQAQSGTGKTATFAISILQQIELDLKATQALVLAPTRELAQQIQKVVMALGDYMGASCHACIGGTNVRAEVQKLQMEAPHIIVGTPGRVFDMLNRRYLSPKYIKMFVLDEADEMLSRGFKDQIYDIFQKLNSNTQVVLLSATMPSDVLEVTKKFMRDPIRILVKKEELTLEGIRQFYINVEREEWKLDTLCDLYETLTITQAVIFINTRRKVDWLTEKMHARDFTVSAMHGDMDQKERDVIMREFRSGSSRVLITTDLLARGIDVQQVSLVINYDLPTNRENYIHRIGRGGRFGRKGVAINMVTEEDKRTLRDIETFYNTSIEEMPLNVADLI
UniProt P55884: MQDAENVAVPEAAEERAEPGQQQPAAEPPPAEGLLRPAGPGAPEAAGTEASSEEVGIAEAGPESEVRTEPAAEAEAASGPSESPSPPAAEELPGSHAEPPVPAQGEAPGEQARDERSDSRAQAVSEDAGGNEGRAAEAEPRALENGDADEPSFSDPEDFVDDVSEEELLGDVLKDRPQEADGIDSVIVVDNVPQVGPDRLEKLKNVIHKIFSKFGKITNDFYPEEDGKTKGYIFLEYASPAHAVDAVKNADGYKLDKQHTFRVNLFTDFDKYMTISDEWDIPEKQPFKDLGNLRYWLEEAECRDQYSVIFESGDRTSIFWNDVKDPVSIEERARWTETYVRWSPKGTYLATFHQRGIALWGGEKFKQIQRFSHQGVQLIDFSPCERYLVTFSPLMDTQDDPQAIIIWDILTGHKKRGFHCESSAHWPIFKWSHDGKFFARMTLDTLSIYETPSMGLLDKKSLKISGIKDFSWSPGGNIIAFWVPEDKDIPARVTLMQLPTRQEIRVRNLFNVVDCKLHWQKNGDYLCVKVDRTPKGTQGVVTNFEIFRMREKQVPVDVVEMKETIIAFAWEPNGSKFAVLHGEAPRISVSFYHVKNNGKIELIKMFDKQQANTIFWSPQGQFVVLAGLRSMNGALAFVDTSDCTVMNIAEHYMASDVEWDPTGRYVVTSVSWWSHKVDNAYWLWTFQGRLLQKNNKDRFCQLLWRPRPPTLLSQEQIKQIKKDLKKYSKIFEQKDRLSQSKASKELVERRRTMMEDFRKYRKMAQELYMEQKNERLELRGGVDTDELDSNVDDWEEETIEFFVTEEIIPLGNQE

Biological target: T1, Flag-DAP5 E862Q (human) (UniProt P78344)
T1 sequence: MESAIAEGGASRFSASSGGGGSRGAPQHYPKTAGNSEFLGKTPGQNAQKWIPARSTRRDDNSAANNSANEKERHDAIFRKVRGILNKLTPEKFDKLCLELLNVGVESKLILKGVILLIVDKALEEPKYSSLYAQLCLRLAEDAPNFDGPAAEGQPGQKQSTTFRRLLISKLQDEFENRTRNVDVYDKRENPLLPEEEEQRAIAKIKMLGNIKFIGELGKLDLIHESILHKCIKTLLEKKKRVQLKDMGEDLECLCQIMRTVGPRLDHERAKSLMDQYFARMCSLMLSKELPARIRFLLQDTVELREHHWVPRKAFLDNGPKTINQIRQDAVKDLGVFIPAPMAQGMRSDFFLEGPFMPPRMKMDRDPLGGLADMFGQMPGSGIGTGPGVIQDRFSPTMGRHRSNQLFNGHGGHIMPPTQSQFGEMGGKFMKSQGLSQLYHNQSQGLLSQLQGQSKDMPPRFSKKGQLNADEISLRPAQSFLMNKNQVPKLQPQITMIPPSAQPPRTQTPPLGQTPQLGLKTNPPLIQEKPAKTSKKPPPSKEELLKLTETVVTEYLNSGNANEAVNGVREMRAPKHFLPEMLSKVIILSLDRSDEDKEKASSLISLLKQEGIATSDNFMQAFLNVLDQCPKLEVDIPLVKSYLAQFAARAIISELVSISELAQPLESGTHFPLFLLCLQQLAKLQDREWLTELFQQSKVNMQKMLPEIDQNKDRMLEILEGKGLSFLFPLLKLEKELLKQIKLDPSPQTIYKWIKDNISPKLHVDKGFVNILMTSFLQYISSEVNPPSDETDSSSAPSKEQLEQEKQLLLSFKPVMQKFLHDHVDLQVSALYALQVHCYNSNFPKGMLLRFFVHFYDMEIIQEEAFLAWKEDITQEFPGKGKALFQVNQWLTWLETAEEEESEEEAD
Test: co-IP; HEK293T transfected 24 h with Flag-tagged DAP5 constructs; lysis in buffer B (20 mM HEPES-KOH pH 7.6, 100 mM KCl, 0.5 mM EDTA, 0.4% NP-40, 20% glycerol); anti-Flag-conjugated beads, elution with Flag peptide; western blot of endogenous factors

binding | Substance
binds | eIF4AI (from UniProt P60842 1-406)
binds | eIF3S9 (from UniProt P55884 1-814)
